Results reported in PubChem BioAssay (NCATS).
Several values for one entry are separate records, joined by “and”; a condition that tells them apart may be missing. Equal entries are not always repeated. Inconclusive means that the source gave no clear call. Such entries were picked first, then a sample of the others. A potency beside an inconclusive call is a rough fit, not a confirmed value. Activity calls are given as the source filed them. Calls follow the shape of the dose curve; as a rule, active = well fitted inhibition curve with a large enough effect; inconclusive = small, poorly fitted or top-dose-only effect; inactive = flat fitted curve, though single readings scatter.

System: HEK293
Assay: Cytotoxic Profiling of Annotated Libraries Using Quantitative High-Throughput Screening (AID 1296008); also: nearly all actives have a fitted effect of over 60% in size
Conditions: Five cell lines viability, CellTiter-Glo ATP luminescence, 48-72 h; max response: stronger effect = lower value
Outline: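 Cells exposed to compounds for 48 or 72 hr at 37 degrees Celsius. Viability read as ATP-coupled luminescence with CellTiter-Glo after 10 min at room temperature.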
% is scaled to controls: 0 for no effect and ±100 for the full control effect; potency is read from the fitted curve at half-maximal effect; tags tell the direction and shape of the fitted curve.

Q: For `COc1cc(OC)c(NC(=O)Nc2cc(C)on2)cc1Cl`, which max response is on record?
A: Its max response is inactive: -18.7%.

Q: With `CC=C(C(=CC)c1ccc(O)cc1)c1ccc(O)cc1` as the compound, how does the max response read?
A: The max response was inactive: -14%.

Q: How did the Potency turn out when `O=C(Nc1nnc(-c2ccco2)o1)c1cc(-c2ccccc2)nc2ccccc12` was run?
A: Its Potency is inconclusive: 33.2 µM [inhibitor, single point].

Q: How did the Potency turn out when `O=C1CCC[C@@H]2[C@H]3CCC[N+]4([O-])CCC[C@@H](CN12)[C@@H]34` (some centres undefined) was run?
A: The Potency was inconclusive: 37.2 µM [inhibitor, single point].

Q: For `Cn1c(=O)c2c(ncn2CC(O)CO)n(C)c1=O` (centres undefined), which max response is on record?
A: The max response was inactive: -3.34% and inactive: -13.7%.

Q: For `CC(=O)NC[C@H]1CN(c2ccc(N3CCOCC3)c(F)c2)C(=O)O1`, which Potency is on record?
A: Its Potency is inconclusive: 29.1 µM [inhibitor, single point].

Q: For `CSc1cccc(Nc2ncc3cc(-c4c(Cl)cccc4Cl)c(=O)n(C)c3n2)c1`, which Potency is on record?
A: Its Potency is active: 13.2 µM.

Q: Which Potency does the source give for `CC(C=CC(=O)NO)=C[C@@H](C)C(=O)c1ccc(N(C)C)cc1` here?
A: The Potency was active: 1.05 µM.

Q: For `C=CC[C@@H]1C=C(C)C[C@H](C)C[C@H](OC)[C@H]2O[C@@](O)(C(=O)C(=O)N3CCCC[C@H]3C(=O)O[C@H](C(C)=C[C@@H]3CC[C@H](O)[C@H](OC)C3)[C@@H](C)[C@@H](O)CC1=O)[C@@H](C)C[C@@H]2OC`, which Potency is on record?
A: Its Potency is active: 7.43 µM.

Q: `CN1CCN(c2cc(C(=O)Nc3ccc4c(c3)-c3c(c(C(N)=O)nn3-c3ccc(F)cc3)CC4)c(Cl)cn2)CC1` was tested. Which Potency did it give?
A: Its Potency is active: 20.9 µM.

Q: With `CN(C)c1ccccc1CN1CCCN(Cc2ccccc2N(C)C)C1c1ccncc1` as the compound, how does the Potency read?
A: Its Potency is inconclusive: 37.2 µM [inhibitor, single point].

Q: Which Potency does the source give for `C=C1C(=CC=C2CCCC3(C)[C@@H]([C@H](C)C=CC=CC(O)(CC)CC)CC[C@@H]23)C[C@@H](O)C[C@@H]1O` (some centres undefined) here?
A: The Potency was inconclusive: 37.2 µM [inhibitor, single point].

Q: For `c1ccc(CNc2nc(N3CCOc4ccccc43)nc3c2CCCC3)cc1`, which Potency is on record?
A: The Potency was inconclusive: 33.2 µM [inhibitor, single point] and inconclusive: 29.1 µM [inhibitor, single point].

Q: Which Potency does the source give for `CCc1cc(C(C)=NOCc2ccc(C3CCCCC3)c(C(F)(F)F)c2)ccc1CN1CC(C(=O)O)C1` here?
A: The Potency was inconclusive: 13.2 µM [inhibitor, partial curve].

Q: How did the outcome turn out when `Cn1cc(-c2ccc3nnc(Sc4ccc5ncccc5c4)n3n2)cn1` was run?
A: The outcome was “inactive”.

Q: For `CC(C)[C@H](O)C(=O)N[C@@H](C)C(=O)N[C@@H]1C(=O)N(C)CCc2ccccc21`, which max response is on record?
A: The max response was inactive: -11.6%.

Q: For `CC(C)c1nc(CN(C)C(=O)N[C@H](C(=O)N[C@@H](Cc2ccccc2)C[C@H](O)[C@H](Cc2ccccc2)NC(=O)OCc2cncs2)C(C)C)cs1`, which Potency is on record?
A: The Potency was inconclusive: 37.2 µM [inhibitor, single point] and inconclusive: 29.9 µM [inhibitor, single point] and inconclusive: 29.1 µM [inhibitor, single point].

Q: With `CO[C@@H]1C(N(C)C(=O)c2ccccc2)C[C@H]2O[C@]1(C)n1c3ccccc3c3c4c(c5c6ccccc6n2c5c31)C(=O)NC4=O` (some centres undefined) as the compound, how does the Potency read?
A: The Potency was inconclusive: 10.5 µM [inhibitor, full curve].

Q: `C=C[C@@H]1CN2CCC1C[C@H]2[C@H](O)c1ccnc2ccc(OC)cc12` (some centres undefined) was tested. Which Potency did it give?
A: Its Potency is inconclusive: 33.2 µM [inhibitor, single point].

Q: How did the max response turn out when `FC(F)(F)c1ccc(C=Cc2nc(COc3ccc(CCCCn4ccnn4)cc3)co2)cc1` was run?
A: The max response was inactive: -116%.

Q: For `Cc1cccc(CN2CCN(C(c3ccccc3)c3ccc(Cl)cc3)CC2)c1` (centres undefined), which Potency is on record?
A: Its Potency is inconclusive: 26.6 µM [inhibitor, single point] and inconclusive: 29.6 µM [inhibitor, single point].

Q: `Nc1ncn([C@H]2C[C@H](O)[C@@H](CO)O2)c(=O)n1` was tested. Which Potency did it give?
A: The Potency was inconclusive: 29.9 µM [inhibitor, single point] and active: 18.7 µM.

Q: For `c1cc(OCCN2CCCCC2)cc(-c2n[nH]c3ccc(-c4ncn[nH]4)cc23)c1`, which Potency is on record?
A: The Potency was inconclusive: 33.2 µM [inhibitor, single point] and inconclusive: 16.4 µM [inhibitor, single point].

Q: Which Potency does the source give for `CC[C@]1(O)C[C@H]2CN(CCC3=c4ccccc4=N[C]3[C@@](C(=O)OC)(c3cc4c(cc3OC)N(C)[C@H]3[C@@](O)(C(N)=O)[C@H](O)[C@]5(CC)C=CCN6CC[C@]43[C@@H]65)C2)C1` here?
A: Its Potency is active: 0.0166 µM.
